# Values joined by “and” are separate entries in the source; they are usually repeats but may differ in a detail not shown here. Identical values can stand only once. Inconclusive results, whose numbers are uncertain, are shown with a selection of clear calls. Where the call is inconclusive, the potency comes from a doubtful curve fit. The source holds several records for some structures; these can differ, active in one and inactive in another. Active and inactive are the calls of the source. Calls come from the whole dose curve; as a rule, active = well fitted curve in the direction sought with a large enough effect; inconclusive = small, poorly fitted or top-dose-only effect, or another doubt; inactive = no such curve, though single readings can be large; an effect the other way counts as inactive or inconclusive.
# Legend:
# [1] = Viability qHTS for spleen associated tyrosine kinase inhibitor (SYKi) naive MV4-11 cells (AID 1963823); conditions: MV4-11 AML viability, CellTiter-Glo luminescence, 72 h; viability (% of control): at 45 µM (top of the series); note: nearly all actives have a fitted effect of over 40% in size
# In short: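 Compounds were dispensed acoustically onto plates, MV4-11 cells (SYKi-naive) added at 500 per well, and plates incubated 72 hr at 37 C. CellTiter-Glo was added and luminescence measured after 10 min.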
# [2] = Cellular viability qHTS for adrenocortical cancer (ACC) cell line NCI-H295R (AID 1963990); conditions: CellTiter-Glo ATP luminescence, 48 h; activity change, negative = viability loss: at 46.1 µM (top of the series); note: nearly all actives have a fitted effect of over 60% in size;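 for activity change, negative = viability loss: 0% = DMSO only wells and -100% = full killing with cytotoxic reference compound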
# In short: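 Adrenocortical carcinoma cells, suspended at 300 000 cells/mL in serum-free DMEM plus ITS, rested overnight before pin transfer of compound. After two days' incubation, ATP-dependent luminescence was recorded and curve-fitted.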
# Potency is the fitted concentration of half-maximal effect; tags give direction and shape of the fitted curve.
Compound,Potency [1],Potency [2],viability (% of control) [1],"activity change, negative = viability loss [2]"
CNC(=O)c1ccccc1Sc1ccc2c(/C=C/c3ccccn3)n[nH]c2c1,"inconclusive: 5.31 µM [cytotoxic, partial curve, poor fit] and inconclusive: 1.84 µM [cytotoxic, full curve] and inconclusive: 2.63 µM [cytotoxic, full curve]","inconclusive: 1.03 µM [cytotoxic, full curve, poor fit] and inconclusive: 7.94 µM [cytotoxic, partial curve]",–,–
CO[C@H]1/C=C/O[C@@]2(C)Oc3c(C)c(O)c4c(O)c(c5c(nc6cc(C)ccn65)c4c3C2=O)NC(=O)/C(C)=C\C=C\[C@H](C)[C@H](O)[C@@H](C)[C@@H](O)[C@@H](C)[C@H](OC(C)=O)[C@@H]1C,"inconclusive: 18.6 µM [cytotoxic, partial curve]","inconclusive: 35.5 µM [cytotoxic, single point]",–,–
O=C(O)C[C@H]1CCc2c1[nH]c1ccc(OCc3ccc(C4CCCC4)c(C(F)(F)F)c3)cc21,"inconclusive: 7.42 µM [cytotoxic, full curve]","inconclusive: 28.2 µM [cytotoxic, single point]",–,–
C[C@@H]1CC[C@@]2(OC1)O[C@H]1C[C@H]3[C@@H]4CC[C@H]5C[C@@H](O)CC[C@]5(C)[C@H]4CC(=O)[C@]3(C)[C@H]1[C@@H]2C,–,–,inactive: 83.6% [at 4.97 µM],inactive: -14.3% [at 3.81 µM]
COc1ccc(S(=O)(=O)N2c3ccc(Cl)cc3[C@@](O)(c3ccccc3Cl)[C@H]2C(=O)N2CCC[C@@H]2C(N)=O)cc1OC,"inconclusive: 18.8 µM [cytotoxic, partial curve]","inconclusive: 9.2 µM [cytotoxic, partial curve]",–,–
CC1CCc2c(N3CCC(O)CC3)c(F)cc3c(=O)c(C(=O)O)cn1c23 (stereo not given),"inconclusive: 15 µM [cytotoxic, partial curve, poor fit]",inactive,–,–
CN[C@@H]1[C@@H](O)[C@@H](O[C@@H]2[C@@H](O)[C@H](O[C@H]3O[C@H](CN)[C@@H](O)[C@H](O)[C@H]3O)[C@@H](N)C[C@H]2NC(=O)C(O)CN)OC[C@]1(C)O (stereo not given in full),"inconclusive: 0.934 µM [rising, full curve, poor fit]","inconclusive: 35.5 µM [cytotoxic, single point]",–,–
COc1ccc(-c2cc(=S)ss2)cc1,inactive,inactive,–,–
CCCCCCCC(=O)OCC(COC(=O)CCCCCCC)OC(=O)CCCCCCC,"inconclusive: 0.668 µM [cytotoxic, full curve, poor fit]","inconclusive: 29.1 µM [cytotoxic, single point]",–,–
COCCc1ccc(OCC(O)CNC(C)C)cc1 (stereo not given),inconclusive: 0.0008 µM [cytotoxic],inactive,–,–
Cc1ccc2cc(-c3c(C)ccc(C(=O)c4c(-c5ccccc5)n(C)n(-c5ccccc5)c4=O)c3N)ccc2n1,active: 4.61 µM,inactive,–,–
COC(=O)/C=C/C(=O)N(O)CCCCNCc1ccc(COC(=O)Nc2cccc3ccccc23)cc1,active: 7.31 µM,inactive,–,–
CCN(CC)CCSC(=O)C(c1ccccc1)c1ccccc1,"inconclusive: 15 µM [cytotoxic, single point]","inconclusive: 29.1 µM [cytotoxic, single point]",–,–
Cc1ncc(NC(=O)c2cccc(C(F)(F)F)c2)cc1-c1cnc(OC2CCOCC2)c(N2CCOCC2)c1,active: 6.61 µM,"inconclusive: 35.5 µM [cytotoxic, single point]",–,–
O=c1ncccn1[C@@H]1O[C@H](CO)[C@@H](O)[C@H]1O,"inconclusive: 18.6 µM [cytotoxic, partial curve, poor fit]",inactive,–,–
Nc1nccc2c1ncn2[C@@H]1C=C(CO)[C@@H](O)[C@H]1O,active: 0.166 µM,"inconclusive: 12.6 µM [cytotoxic, partial curve, poor fit]",–,–
O=c1cc(N2CCOCC2)oc2c(-c3ccc4c(c3)OCCO4)csc12,"inconclusive: 0.742 µM [cytotoxic, full curve]",active: 2.51 µM,–,–
C[C@@H]1C(=O)OC2[C@H](O)[C@]34[C@H]5C[C@@H](C(C)(C)C)[C@]36[C@@H](OC(=O)[C@@H]6O)O[C@@]4(C(=O)O5)[C@]21O (stereo not given in full),inactive,inactive,–,–
C#CC1(O)CC[C@H]2[C@@H]3CCC4=CCCC[C@@H]4[C@H]3CC[C@@]21C (stereo not given in full),"inconclusive: 11.9 µM [cytotoxic, partial curve]",inactive,–,–
CC1CCc2cc(F)cc3c(=O)c(C(=O)O)cn1c23 (stereo not given),"inconclusive: 13.3 µM [cytotoxic, partial curve, poor fit]",inactive,–,–
Cc1ccc(NC(=O)NCc2ccc3c(c2)CN(C2CCC(=O)NC2=O)C3=O)cc1Cl (stereo not given),"inconclusive: 0.0012 µM [cytotoxic, full curve]",active: 0.0251 µM,–,–
CC(C)n1nc(-c2cc3cc(O)ccc3[nH]2)c2c(N)ncnc21,"inconclusive: 376 nM [cytotoxic, full curve] and active: 116 nM",active: 2.31 µM and active: 10 µM,–,–
O=C1NC(=O)C(c2c[nH]c3ccccc23)=C1c1c[nH]c2ccccc12,active: 1.86 µM,"inconclusive: 35.5 µM [cytotoxic, single point]",–,–

Compound,Potency [1],Potency [2],viability (% of control) [1],"activity change, negative = viability loss [2]"
C[C@@H](C(=O)Nc1ccc(Cl)cc1)C1CCC(c2ccnc3ccc(F)cc23)CC1 (stereo not given in full),active: 18.6 µM,active: 25.1 µM,–,–
CCCCCOc1ccccc1/C(=C\SC)n1ccnc1,active: 11.9 µM,"inconclusive: 29.1 µM [cytotoxic, single point]",–,–
CCn1nc(C2CCN(C(=O)CCO)CC2)nc1-c1cnc(N)c(-c2nnc(C(C)(C)C)o2)n1,"inconclusive: 1.46 µM [cytotoxic, full curve] and active: 5.25 µM","inconclusive: 0.794 µM [cytotoxic, full curve]",–,–
CC(=O)/C=C/C=C1/C2CCC(C2)C1(C)C (stereo not given),inactive,"inconclusive: 4.11 µM [cytotoxic, full curve]",–,–
O=S(=O)(O)c1ccc2nc(-c3ccccc3)[nH]c2c1,inactive,"inconclusive: 18.4 µM [cytotoxic, partial curve]",–,–
Cc1c(NC(=O)c2cc(C(N)=O)nc3cc(F)ccc23)c(C(F)(F)F)nn1Cc1ccc(C#N)cc1,inactive and active: 14.8 µM,"inconclusive: 4.47 µM [cytotoxic, full curve]",–,–
CCCCC(CC)COC(=O)/C=C/c1ccc(OC)cc1 (stereo not given),inactive,"inconclusive: 6.51 µM [cytotoxic, single point]",–,–
CCN[C@@H]1C[C@H](N)[C@@H](OC2OC(CN)=CCC2N)[C@H](O)[C@H]1O[C@H]1OC[C@](C)(O)[C@H](NC)[C@H]1O (stereo not given in full),–,–,inactive: 111% [at 0.588 µM],inactive: -3.31% [at 0.587 µM]
Brc1c(NC2=NCCN2)ccc2nccnc12,inactive,inactive,–,–
OCc1cccnc1,"inconclusive: 10.6 µM [cytotoxic, partial curve, poor fit]","inconclusive: 9.2 µM [cytotoxic, partial curve]",–,–
C=CC(=O)N1CCC(CNc2ncnc(N)c2-c2ccc(Oc3ccccc3)cc2)CC1,active: 5.9 µM,"inconclusive: 20 µM [cytotoxic, partial curve, poor fit]",–,–
CC1(C)OCCn2c1nc1c(N3CCOCC3)nc(-c3cnc(N)nc3)nc12,active: 1.32 µM,"inconclusive: 0.631 µM [cytotoxic, full curve]",–,–
Cn1c(=O)c2c(ncn2CCO)n(C)c1=O,inactive,"inconclusive: 29.1 µM [cytotoxic, partial curve, poor fit]",–,–
COc1cc(C(=O)OC(COCCC(C)C)CN2CCOCC2)cc(OC)c1OC (stereo not given),inactive,"inconclusive: 20.6 µM [cytotoxic, single point]",–,–
COC1CC(C(=O)c2ccc3c(N)ncc(-c4ccc(-c5cnn(C)c5)cc4)c3n2)C1 (stereo not given),"inconclusive: 1.18 µM [cytotoxic, full curve]",inactive,–,–
CCCCCCCCCCCCCCCC(=O)NCCO,inactive,inactive,–,–
CC1=C(/C=C/C(C)=C/C=C/C(C)=C/C(=O)O)C(C)(C)CCC1,active: 668 nM and active: 132 nM,"inconclusive: 2.51 µM [cytotoxic, partial curve, poor fit]",–,–
Cc1cc(OI)c(C(C)C)cc1-c1cc(C(C)C)c(OI)cc1C,"inconclusive: 0.106 µM [rising, full curve, poor fit]",inactive,–,–
COc1ccc2[nH]c(C(=O)N3CCC(CC(C)(C)O)CC3)cc2c1,"inconclusive: 18.6 µM [cytotoxic, partial curve, poor fit]",inactive,–,–
COc1cc(CNC(=O)CCCC/C=C/C(C)C)ccc1O,"inconclusive: 14.6 µM [cytotoxic, partial curve, poor fit] and inconclusive: 16.6 µM [cytotoxic, partial curve]","inconclusive: 3.16 µM [cytotoxic, single point]",–,–
C(=C\c1ccccc1)/CN1CCN(C(c2ccccc2)c2ccccc2)CC1,inactive,inactive,–,–
CCC(=C/[C@H](C)C/C=C/C(C)=C/[C@@H](C)C(=O)[C@@H](C)[C@H](O)[C@@H](C)C/C(C)=C/C(=O)O)/C=C/[C@@H]1OC(=O)C=C[C@@H]1C,active: 0.0019 µM,active: 0.01 µM,–,–
